Results: the supplement of paper PMC10126150
Values marked as one replicate rest on one cluster of the flow cell; about a third of the high ones do not repeat.

Tested on: ATP
Test: switch fluorescence ratio, 500 uM ATP over buffer (Cy3 cluster intensity, sum of 5 cycles each) (fold (ratio)); higher = stronger signal-on switching upon ATP binding; sequences stand for … in TCGTCGGCAGCGTCAGATGTGTATAAGAGACAGTTTTTTTTTTTTTTTTTTTTTTTTT…TC
Settings: aptamer strand: ATP DNA aptamer (quencher-CACCTGGGGGAGTATTGCGGAGGAAGG + anchor), 100 nM annealed; ATP concentration: 500 uM; one replicate
Procedure, shortened: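 Clusters with intensities outside 100-1000 RFU were excluded. The remaining Cy3-labelled switching-strand clusters on a modified Illumina MiSeq flow-cell had been annealed to 100 nM quencher-labelled ATP aptamer and imaged in selection buffer, then after 15 min with 500 uM ATP at 22 °C, for five cycles separated by NaOH stripping and re-annealing. The fluorescence ratio, averaged per switch-domain sequence, is each cluster's summed target-cycle Cy3 intensity over its summed buffer-cycle Cy3 intensity.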
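Further: ATP exposure 15 min at 22 °C before imaging.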

Sequence | switch fluorescence ratio
CGTAGTTGTG | 1
CTAGTGGGTG | 1.02
GTGTTGGAC | 0.989
GAGGCGATTG | 1.06
TCCTAGGTAT | 0.986
GTTGCGATGG | 1.07
GAGAGTCCTG | 1
GATGATATCC | 0.993
TGACTATGAG | 0.98
TTACTGCCCG | 1.11
TGGGGCCAAT | 0.999
TTCAGGCGGG | 0.988
CACGACCGGC | 1.07
GTGTGACAGT | 0.987
TCTAGTAAGA | 0.955
GTTTGCCCAG | 0.991
CCGAGGGAGT | 1.6
TTTACGTACT | 1.88
CTGGTGAGAC | 1.17
TTATCGGAAA | 0.991
TGACTAGCCT | 1.07
CACTTGGTCT | 0.946
ATGCTAAGAC | 1.23

Sequence | switch fluorescence ratio
ATATATGAAG | 1.04
CATAACAGGG | 1
AAAAGATTTG | 0.984
AGGTGCGGTG | 1.02
ATGGGCTCGC | 0.986
GATTGTCTT | 1.01
ATTGTCCAAT | 0.951
CTGCGCGGCT | 1.25
CTTAATCCTT | 1.07
ACGGGATTGT | 1.05
GCACCCATTG | 1.03
ACATATTCTT | 1.04
GTGTGGGTTT | 1
GCGGTACGGA | 1.03
CGTTATATA | 1.26
GAGCTCTCCG | 1.24
ACGTGCGCTA | 1.67
TAAACTAGA | 0.95
AATCTATTAG | 0.993
TGTGAAGACT | 1
CACCAGGGAT | 1.4
TCAACGTTGT | 0.992
ATTTACTATG | 0.984

Sequence | switch fluorescence ratio
AGTTTTATGA | 0.944
TTAACCCGC | 1.13
TGGAACGTTG | 1.03
TGCAGGTTTG | 0.984
GCCGGCCACC | 1.03
TGCGGTATCT | 0.98
GTGATAGAGC | 1.06
CAGATCGTCT | 1.05
ACCCTCCAGT | 1.3
CGAGAGATAA | 1.03
TAACTGTTGA | 0.941
AGCGTAAATT | 0.991
ATGCATGTTT | 1
ACGAAAGAGG | 1.04
CCACAAAAA | 1.05
GAGTGCAAGC | 1.11
GTGCACAAAG | 1.02
AGCTGATGGA | 0.992
ACGTGATTAA | 1.01
GGACGTAGCA | 1.3
TTGATGGCCC | 0.95
GACTCCGAGA | 5.61
TTGGGTGTGA | 1.1

Sequence | switch fluorescence ratio
GACTACAAGC | 1.15
ACTCATCCGG | 2.61
TTTGTGAATG | 0.979
CACGTGGCTT | 1.01
TTCACAAGGG | 1
ACTTTGAACA | 0.995
TGGCAACATG | 1.02
TTAAATCATG | 0.952
CACGTCTTTG | 1.01
AAGGTAAAAC | 1
GAACTATCTG | 0.985
GGTAGCTAGA | 1.03
TGCGATCCCT | 1.42
CCGCACAGGT | 3.67
ATTTAGACGA | 0.987
AATAATCGTT | 1.01
CATGGGAGTC | 0.994
CCAGCTGCC | 1.15
TGTTAACAC | 1.06
GAGCGCAAGG | 1.03
AAACTGGCTT | 0.98
CCGCGTGTGA | 1.06
TTGGAAAGTA | 0.975

Sequence | switch fluorescence ratio
TGAGCATGGT | 1.03
ACGAGTACGC | 1.03
TTGTCAAATC | 1.03
GAATCTTGTT | 0.998
TTTCATGTGT | 1.02
ACTAATTCTA | 1.01
TTTTTCCGG | 0.953
TCTGGCGGGA | 1.02
GTTATATCGG | 0.974
ATCGTGGCGG | 0.991
TGGATCTCCG | 1.21
TAAAGGTTA | 1.01
GTTGGACCCA | 1.05
GCTTCTCCGT | 2.12
TCCTTTGGGA | 1.02
TATCTTGGTC | 0.859
TAACCTGGTA | 1.05
CTATTAAGTC | 0.979
TTAGAAGTCC | 1.04
CCCAGAATGC | 1.63
ATTAGATCGT | 0.989
CCTCTGAGTG | 1.44
TTACGCATTA | 1.82

Sequence | switch fluorescence ratio
CAGCCCACCA | 1.03
AGGCTGAGGT | 0.996
TCTAGATGT | 1.01
TAGGGATT | 1.01
ATCTTTAAAA | 1.02
TACGGGTTGG | 0.979
AATTGTGGCA | 1
TAAAGGGTTC | 1.04
CAAGTCAGGG | 1.03
AGTCGAGGTT | 1.01
GGTGGGTTTA | 1.09
TGACTTTTGC | 0.987
TTGGTGATTT | 0.934
TCAATCTCAG | 0.979
TGAAGCTCGT | 1.02
CTCGTTTGAG | 0.971
TGGTTTATCA | 0.972
TTGGTGTGAA | 1.05
AGGAGAAGAA | 1
ATGTGTAGTG | 1
GATTGGCGGC | 0.982
CTTAAGCTTG | 1.03
CGATGCTGCT | 0.978

Sequence | switch fluorescence ratio
GAAGTTTCAA | 1.04
AAGTGAACTC | 0.994
GAGGTTCGCA | 1.06
GATTTAAGCG | 1
CGATAGTAGT | 0.942
ACTAGGCCAT | 1.01
GGTCGCACGT | 1.09
CAACGCTAC | 3.11
CTGGGTGTCG | 1.06
AATAACAATC | 1.03
ATCTGTTTGG | 0.977
TAAGGCCATT | 0.999
AGAGTAGGGC | 1.09
CGATGAAGTT | 0.965
ATTGAGTTAC | 1.02
GGCCCTTTAC | 1.16
AAAACGTCGC | 0.998
ATAGGTCGTG | 0.973
TTAGCTGGAT | 0.97
